Data taken from publication PMC4330371, “Interaction between the RNA-dependent ATPase and poly(A) polymerase subunits of the TRAMP complex is mediated by short peptides and important for snoRNA processing” (Nucleic Acids Research, 2015).
These are yes or no findings as the source states them, for the method shown. Some results given as binding are weak or reduced against the parent protein; the word gives no strength.

B1: Trf5 53-199 (yeast two-hybrid plasmid pAV744) (domain or fragment, UniProt P48561 53-199)
chain: AIDVEDDDTFGNLVLMENDKSDVDIPVIEEVTSSEDEQRAESSKRNNSLEDNQDFIAFSDSSEDETEQIKEDDDERSSFLLTDEHEVSKLTSQQSLNTESACNVEYPWIRNHCHSKQRRIADWLTSEIKDFVHYISPSKNEIKCRNR
B2: Trf5 98-117 (yeast two-hybrid construct) (peptide, UniProt P48561 98-117)
chain: NNSLEDNQDFIAFSDSSEDE
B3: Trf5 68-199 (yeast two-hybrid plasmid pAV759) (domain or fragment, UniProt P48561 68-199)
chain: MENDKSDVDIPVIEEVTSSEDEQRAESSKRNNSLEDNQDFIAFSDSSEDETEQIKEDDDERSSFLLTDEHEVSKLTSQQSLNTESACNVEYPWIRNHCHSKQRRIADWLTSEIKDFVHYISPSKNEIKCRNR
B4: Trf5 83-199 (yeast two-hybrid plasmid pAV760) (domain or fragment, UniProt P48561 83-199)
chain: VTSSEDEQRAESSKRNNSLEDNQDFIAFSDSSEDETEQIKEDDDERSSFLLTDEHEVSKLTSQQSLNTESACNVEYPWIRNHCHSKQRRIADWLTSEIKDFVHYISPSKNEIKCRNR
B5: Trf5 98-199 (yeast two-hybrid plasmid pAV761) (domain or fragment, UniProt P48561 98-199)
chain: NNSLEDNQDFIAFSDSSEDETEQIKEDDDERSSFLLTDEHEVSKLTSQQSLNTESACNVEYPWIRNHCHSKQRRIADWLTSEIKDFVHYISPSKNEIKCRNR
B6: Trf5 53-184 (yeast two-hybrid plasmid pAV762) (domain or fragment, UniProt P48561 53-184)
chain: AIDVEDDDTFGNLVLMENDKSDVDIPVIEEVTSSEDEQRAESSKRNNSLEDNQDFIAFSDSSEDETEQIKEDDDERSSFLLTDEHEVSKLTSQQSLNTESACNVEYPWIRNHCHSKQRRIADWLTSEIKDFV
B7: Trf5 53-169 (yeast two-hybrid plasmid pAV763) (domain or fragment, UniProt P48561 53-169)
chain: AIDVEDDDTFGNLVLMENDKSDVDIPVIEEVTSSEDEQRAESSKRNNSLEDNQDFIAFSDSSEDETEQIKEDDDERSSFLLTDEHEVSKLTSQQSLNTESACNVEYPWIRNHCHSKQ
B8: Trf5 53-154 (yeast two-hybrid plasmid pAV764) (domain or fragment, UniProt P48561 53-154)
chain: AIDVEDDDTFGNLVLMENDKSDVDIPVIEEVTSSEDEQRAESSKRNNSLEDNQDFIAFSDSSEDETEQIKEDDDERSSFLLTDEHEVSKLTSQQSLNTESAC
B9: Trf5 53-139 (yeast two-hybrid plasmid pAV767) (domain or fragment, UniProt P48561 53-139)
chain: AIDVEDDDTFGNLVLMENDKSDVDIPVIEEVTSSEDEQRAESSKRNNSLEDNQDFIAFSDSSEDETEQIKEDDDERSSFLLTDEHEV
B10: Trf5 53-124 (yeast two-hybrid plasmid pAV768) (domain or fragment, UniProt P48561 53-124)
chain: AIDVEDDDTFGNLVLMENDKSDVDIPVIEEVTSSEDEQRAESSKRNNSLEDNQDFIAFSDSSEDETEQIKED
B11: Trf5 118-199 (yeast two-hybrid plasmid pAV766) (domain or fragment, UniProt P48561 118-199)
chain: TEQIKEDDDERSSFLLTDEHEVSKLTSQQSLNTESACNVEYPWIRNHCHSKQRRIADWLTSEIKDFVHYISPSKNEIKCRNR

These binders were tested against T1, Mtr4 (yeast two-hybrid plasmid pAV745) (S. cerevisiae) (UniProt P47047) (assay: two-hybrid; MTR4 TRP1 plasmids in PJ69-4α crossed to TRF5 LEU2 (pOAD) plasmids in PJ69-4a; diploids serially diluted and spotted on SC-TRP-LEU, SC-ADE and SC-HIS (with 10 mM 3-AT)).
T1 sequence: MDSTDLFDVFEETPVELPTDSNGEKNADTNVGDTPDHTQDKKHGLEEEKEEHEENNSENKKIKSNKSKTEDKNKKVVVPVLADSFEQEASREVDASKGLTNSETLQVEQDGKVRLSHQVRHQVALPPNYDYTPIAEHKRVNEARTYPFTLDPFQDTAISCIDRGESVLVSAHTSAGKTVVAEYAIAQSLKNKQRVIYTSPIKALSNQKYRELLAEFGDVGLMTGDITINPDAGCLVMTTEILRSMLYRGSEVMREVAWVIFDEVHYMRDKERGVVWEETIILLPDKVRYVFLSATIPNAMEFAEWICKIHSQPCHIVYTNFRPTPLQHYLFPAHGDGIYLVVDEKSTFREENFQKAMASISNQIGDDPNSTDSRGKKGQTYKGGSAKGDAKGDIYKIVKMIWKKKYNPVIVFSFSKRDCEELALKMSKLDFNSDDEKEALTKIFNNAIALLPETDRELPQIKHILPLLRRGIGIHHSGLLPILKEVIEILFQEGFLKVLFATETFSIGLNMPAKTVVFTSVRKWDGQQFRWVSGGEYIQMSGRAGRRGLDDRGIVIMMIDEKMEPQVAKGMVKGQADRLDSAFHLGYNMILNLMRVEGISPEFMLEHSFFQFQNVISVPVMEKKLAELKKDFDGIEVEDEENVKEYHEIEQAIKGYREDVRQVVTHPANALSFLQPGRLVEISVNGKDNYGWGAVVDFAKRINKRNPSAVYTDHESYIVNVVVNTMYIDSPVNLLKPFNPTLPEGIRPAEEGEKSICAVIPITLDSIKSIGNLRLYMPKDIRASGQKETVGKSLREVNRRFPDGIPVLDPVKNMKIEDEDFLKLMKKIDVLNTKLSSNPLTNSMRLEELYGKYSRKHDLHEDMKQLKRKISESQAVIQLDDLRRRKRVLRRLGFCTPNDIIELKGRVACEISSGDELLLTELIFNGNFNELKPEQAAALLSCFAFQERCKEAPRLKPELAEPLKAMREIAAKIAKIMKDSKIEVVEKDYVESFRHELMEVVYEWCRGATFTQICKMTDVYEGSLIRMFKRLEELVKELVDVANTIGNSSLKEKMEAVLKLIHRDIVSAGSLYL
For B1, the binding was “binds”.
In the case of B2, the binding is reported as “binds”.
For B3, the binding was “binds”.
B4 was tested, and the binding was “binds”.
With B5 the binding was “binds”.
B6 was tested, and the binding was “binds”.
In the case of B7, the binding is reported as “binds”.
With B8 the binding was “binds”.
B9 was tested, and the binding was “binds”.
For B10, the binding was “binds”.
For B11, the binding was “no binding”.
